{
  "source": "PubChem BioAssay AID1240",
  "about": "(Sanford-Burnham Center for Chemical Genomics, 2008)",
  "note": "Among all 50,000 compounds or so, about 800 (1.6%) showed an effect of 50% or more. The list shows a part of the results.",
  "data": [
    {"biological_target": "Bcl-2-like protein 10 (Homo sapiens) (UniProt Q9HD36)", "sequence (Q9HD36 whole entry, looked up)": "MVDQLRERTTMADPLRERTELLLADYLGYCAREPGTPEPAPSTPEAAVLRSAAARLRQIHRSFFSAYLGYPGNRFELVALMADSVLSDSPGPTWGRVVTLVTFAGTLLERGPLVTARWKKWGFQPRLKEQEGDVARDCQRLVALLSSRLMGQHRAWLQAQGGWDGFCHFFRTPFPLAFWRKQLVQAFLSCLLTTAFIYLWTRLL", "assay": "TR3 peptide-Bcl-B binding displacers, biochemical primary FP assay, phenotype converters (AID 1240);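 note: 0% = Bcl-B with tracer peptide and DMSO and 100% = tracer peptide lacking Bcl-B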", "details": "GST-Bcl-B / FITC-TR3 peptide fluorescence polarization; stronger effect = higher value; compound at 3.75 mg/L", "units": {"displacement": "%"}, "values": [
      {"smiles": "O=[N+]([O-])c1cccc(-c2ncnn2-c2ccccc2)c1", "displacement": 6.3},
      {"smiles": "O=C(Nc1cccc(-c2nc3ccccc3o2)c1)c1cc2ccccc2o1", "displacement": 0.8},
      {"smiles": "Cc1ccnc(NS(=O)(=O)c2ccc(N3C(=O)c4ccccc4C3=O)cc2)n1", "displacement": 14.1},
      {"smiles": "O=[N+]([O-])c1cccc(-c2ccc(CO)o2)c1", "displacement": 7.1},
      {"smiles": "CCCOc1ccc(C(=O)Nc2ccccc2C(=O)OC)cc1", "displacement": 11.8},
      {"smiles": "Cc1ccc(CNC(=O)/C=C/c2ccccc2)cc1", "displacement": 4},
      {"smiles": "CC(=O)NS(=O)(=O)c1ccc(NC(=O)c2ccc([N+](=O)[O-])c(C)c2)cc1", "displacement": -8.5},
      {"smiles": "CC1=C(C(=O)OC(C)C)C(c2ccccc2)C2=C(CCCC2=O)N1", "note": "(configuration not stated)", "displacement": 4.2},
      {"smiles": "C=CCn1c2ccccc2c2nnc(SC)nc21", "displacement": 0.3},
      {"smiles": "O=C1OC(c2ccc(-c3ccccc3)cc2)c2ccccc21", "note": "(configuration not stated)", "displacement": -7.4},
      {"smiles": "CCCCOc1ccc(-c2nc(C3CCCCC3)no2)cc1", "displacement": 13.5},
      {"smiles": "CC1=NN(c2cccc(C(=O)O)c2)C(=O)/C1=C\\c1ccc(N(C)C)cc1", "displacement": 0.7},
      {"smiles": "COc1cccc(NC(=O)c2sc3ccccc3c2Cl)c1", "displacement": 1},
      {"smiles": "CC(C)NC(=O)C1CC1(c1ccccc1)c1ccccc1", "note": "(configuration not stated)", "displacement": 4.7},
      {"smiles": "C=CCc1ccc(OCCCCN2CCC(C)CC2)c(OC)c1", "displacement": 13.8},
      {"smiles": "O=C(COc1ccc(F)cc1)NC(C(=O)O)C12CC3CC(CC(C3)C1)C2", "note": "(configuration not stated)", "displacement": -12.9},
      {"smiles": "CC1CCN(S(=O)(=O)c2ccc(NC(=O)c3ccc(-c4ccccc4)cc3)cc2)CC1", "displacement": -1.5},
      {"smiles": "CO/C(=N\\S(=O)(=O)c1ccc(Cl)cc1)c1ccccc1", "displacement": 11.1},
      {"smiles": "COc1ccc(CC(=O)Nc2ccc(-c3ccc(NC(=O)Cc4ccc(OC)cc4)c(OC)c3)cc2OC)cc1", "displacement": -9.2},
      {"smiles": "O=C(Nc1ccc(OC(F)(F)F)cc1)c1cccc(Br)c1", "displacement": -2.2},
      {"smiles": "CCn1c(/C=N/NC(=O)c2ccccc2)nc2ccccc21", "displacement": 7.2},
      {"smiles": "CC(=O)c1cccc(NC(=O)/C(=C/c2ccc(Br)cc2)NC(=O)c2ccccc2)c1", "displacement": -5.8},
      {"smiles": "Cc1cccc(C(=O)Oc2ccc(/C=C3/N=C(c4ccccc4)OC3=O)cc2)c1", "displacement": 0.5},
      {"smiles": "O=c1[nH][nH]c(=O)c2cc(Oc3ccc([N+](=O)[O-])cc3)ccc12", "displacement": 3.2},
      {"smiles": "COc1ccc(C(=O)CSc2nc(C)cc(C)n2)cc1", "displacement": 10.5},
      {"smiles": "O=C(Nc1ccc(S(=O)(=O)Nc2nccs2)cc1)C1CC1", "displacement": -5.1},
      {"smiles": "CCN(CC)c1ccc(/C=C2/C(=O)NN(c3ccccc3)C2=O)cc1", "displacement": 13},
      {"smiles": "COC(=O)c1ccccc1NC(=S)NC(=O)c1ccc(Cl)cc1", "displacement": -1.9},
      {"smiles": "O=C(Nc1ccc2c(c1Cl)C(=O)c1ccccc1C2=O)c1ccccc1", "displacement": 3.9},
      {"smiles": "Cc1cc(Cl)ccc1OC(=O)CCN1C(=O)c2ccccc2C1=O", "displacement": 9.2},
      {"smiles": "COc1ccc(N2C(=O)NC(=O)/C(=C\\c3ccc(C)cc3)C2=O)cc1", "displacement": -6},
      {"smiles": "COC(=O)C(=C/C(Cl)=C/N(C)C)C(=O)OC", "displacement": 13},
      {"smiles": "OC(COCc1ccccc1)CN1CCN(c2ccc(F)cc2)CC1", "note": "(configuration not stated)", "displacement": 6.9},
      {"smiles": "COc1cc(C2C(C(=O)/C=C/c3ccccc3)=C(O)C(=O)N2c2ccccc2)ccc1O", "note": "(configuration not stated)", "displacement": -3.3},
      {"smiles": "O=C(N/N=C/c1ccncc1)c1c[nH]c2ccccc12", "displacement": 5.7},
      {"smiles": "N/C(=N\\OC(=O)c1ccccc1F)c1ccc(Cl)cc1", "displacement": 9.6},
      {"smiles": "CCC(C)N=CC1=C(O)C(C(=O)OC)C(C)(C)CC1=O", "note": "(configuration not stated)", "displacement": 1.4},
      {"smiles": "CC1=C(C(=O)Nc2cc(Cl)ccc2C)C(c2ccc(Br)cc2)NC(=O)N1", "note": "(configuration not stated)", "displacement": 12.6},
      {"smiles": "Oc1ccc(Br)cc1CN1CCN(Cc2ccccc2C(F)(F)F)CC1", "displacement": 11.6},
      {"smiles": "Cc1ccccc1OCCOc1cccc(/C=C2/SC(=S)N(C)C2=O)c1", "displacement": 1.2},
      {"smiles": "C=CCN1C(=O)/C(=C\\c2ccccc2C)SC1=S", "displacement": 4.5},
      {"smiles": "COCCOC(=O)c1ccc(NC(=O)COc2ccc(Br)cc2)cc1", "displacement": -6},
      {"smiles": "CCc1ccccc1N(CC(=O)Nc1ccc(C)c(C)c1)S(C)(=O)=O", "displacement": 4.5},
      {"smiles": "Cc1cc(C)nc(NS(=O)(=O)c2ccc(N/C=C\\C(=O)c3cccs3)cc2)n1", "displacement": 78.5},
      {"smiles": "CC1CC(CCN)(c2ccccc2)C(C)CN1C", "note": "(configuration not stated)", "displacement": -6},
      {"smiles": "COC(=O)c1cc(C(=O)Nc2ccc(Br)c(C)c2)cc([N+](=O)[O-])c1", "displacement": 4.6},
      {"smiles": "O=C1NC(=S)N(c2ccc(Cl)cc2)C(=O)/C1=C/c1ccc(-c2ccc(C(=O)O)cc2)o1", "displacement": -9.2},
      {"smiles": "N[n+]1cnn(CC(=O)c2ccccc2Br)c1", "displacement": 0.1},
      {"smiles": "Cc1sc(NC(=O)CN2CCOCC2)c(C(=O)c2ccccc2)c1C", "displacement": 16.1},
      {"smiles": "O=C1CC(c2ccccc2)=NN1c1cccc([N+](=O)[O-])c1", "displacement": 14.8},
      {"smiles": "O=C(O)CCCCCNS(=O)(=O)c1ccc2c(c1)OCCO2", "displacement": 9.8},
      {"smiles": "CCCC(=O)NNC(=O)c1ccccc1C", "displacement": -5.7},
      {"smiles": "Cc1ccc(NC2CC(C)N(C(=O)c3cccc(F)c3)c3ccc(C)cc32)cc1", "note": "(configuration not stated)", "displacement": -7.1},
      {"smiles": "CC1(C)CC(=O)C=C(Nc2ccc(O)cc2)C1", "displacement": 8.9},
      {"smiles": "COCCCNC(=O)Cc1ccccc1[N+](=O)[O-]", "displacement": 1.6},
      {"smiles": "O=c1oc2ccc([N+](=O)[O-])cc2cc1-c1nc(-c2ccc(Br)cc2)cs1", "displacement": -4.2},
      {"smiles": "COc1ccc(C2C(C#N)=C(N)OC3=C2C(=O)CC(c2ccccc2Cl)C3)cc1", "note": "(configuration not stated)", "displacement": -5.2},
      {"smiles": "O=C(NCCCn1ccnc1)Nc1ccc(Cl)c(Cl)c1", "displacement": -2.5},
      {"smiles": "Cc1cccc(C(=O)NN2CCN(C)CC2)c1", "displacement": -1},
      {"smiles": "COc1ccc(CN2CCN(Cc3ccccc3C(F)(F)F)CC2)cc1Br", "displacement": 0.6},
      {"smiles": "C=CCN1C(=O)/C(=C\\c2ccc(OCCOc3cccc(OC)c3)cc2)SC1=S", "displacement": -1.8},
      {"smiles": "O=C(/C=C/c1ccc([N+](=O)[O-])cc1)Nc1ccc(F)cc1", "displacement": -2.7},
      {"smiles": "C/C(=N/NC(=O)c1ccccc1N)c1cccs1", "displacement": -12.6},
      {"smiles": "Cc1sccc1/C=N/NC(=O)C1CC1", "displacement": 3},
      {"smiles": "CC(O)C(NC(=S)NCc1ccccc1)C(=O)O", "note": "(configuration not stated)", "displacement": -1.1},
      {"smiles": "Cc1cc(C)c(S(=O)(=O)NNc2ccccc2)c(C)c1", "displacement": -1.6},
      {"smiles": "COc1cc2ccccc2cc1C(=O)Nc1ccc(S(=O)(=O)Nc2nc(C)cc(C)n2)cc1", "displacement": 1.2},
      {"smiles": "COc1ccc(NC(=O)C(=O)NCCN2CCN(S(=O)(=O)c3ccccc3)CC2)cc1", "displacement": 9.5},
      {"smiles": "Cc1cc(Cl)ccc1OCC(O)CN1C(C)CCCC1C", "note": "(configuration not stated)", "displacement": 0.8},
      {"smiles": "Cc1cc(Br)c(-c2ccc(/C=C3/SC(=S)NC3=O)o2)cc1C", "displacement": 20.9},
      {"smiles": "CC1(C)CC(=O)C2=C(C1)NC1=C(C(=O)CC(C)(C)C1)C2c1ccc(I)cc1", "displacement": -6.5},
      {"smiles": "CC1=C(C)CC(C(=O)NCCc2ccc(S(N)(=O)=O)cc2)C(C(=O)O)C1", "note": "(configuration not stated)", "displacement": 14.3}
    ]}
  ]
}
